Results on 43 compounds are retold here after PMC4336329 (PLoS ONE, 2015).

About 2,200 (0.71%) of roughly 310,000 compounds showed an effect of 50% or more. Effects have a minus sign here. This is one part of the list.

In this experiment the target is human ether-à-go-go-related gene (hERG) potassium channel (human, UniProt Q12809). The experiment in a line: primary screen, population patch clamp on CHO cells stably expressing hERG.
human ether-à-go-go-related gene (hERG) potassium channel, sequence (Q12809 whole entry, looked up): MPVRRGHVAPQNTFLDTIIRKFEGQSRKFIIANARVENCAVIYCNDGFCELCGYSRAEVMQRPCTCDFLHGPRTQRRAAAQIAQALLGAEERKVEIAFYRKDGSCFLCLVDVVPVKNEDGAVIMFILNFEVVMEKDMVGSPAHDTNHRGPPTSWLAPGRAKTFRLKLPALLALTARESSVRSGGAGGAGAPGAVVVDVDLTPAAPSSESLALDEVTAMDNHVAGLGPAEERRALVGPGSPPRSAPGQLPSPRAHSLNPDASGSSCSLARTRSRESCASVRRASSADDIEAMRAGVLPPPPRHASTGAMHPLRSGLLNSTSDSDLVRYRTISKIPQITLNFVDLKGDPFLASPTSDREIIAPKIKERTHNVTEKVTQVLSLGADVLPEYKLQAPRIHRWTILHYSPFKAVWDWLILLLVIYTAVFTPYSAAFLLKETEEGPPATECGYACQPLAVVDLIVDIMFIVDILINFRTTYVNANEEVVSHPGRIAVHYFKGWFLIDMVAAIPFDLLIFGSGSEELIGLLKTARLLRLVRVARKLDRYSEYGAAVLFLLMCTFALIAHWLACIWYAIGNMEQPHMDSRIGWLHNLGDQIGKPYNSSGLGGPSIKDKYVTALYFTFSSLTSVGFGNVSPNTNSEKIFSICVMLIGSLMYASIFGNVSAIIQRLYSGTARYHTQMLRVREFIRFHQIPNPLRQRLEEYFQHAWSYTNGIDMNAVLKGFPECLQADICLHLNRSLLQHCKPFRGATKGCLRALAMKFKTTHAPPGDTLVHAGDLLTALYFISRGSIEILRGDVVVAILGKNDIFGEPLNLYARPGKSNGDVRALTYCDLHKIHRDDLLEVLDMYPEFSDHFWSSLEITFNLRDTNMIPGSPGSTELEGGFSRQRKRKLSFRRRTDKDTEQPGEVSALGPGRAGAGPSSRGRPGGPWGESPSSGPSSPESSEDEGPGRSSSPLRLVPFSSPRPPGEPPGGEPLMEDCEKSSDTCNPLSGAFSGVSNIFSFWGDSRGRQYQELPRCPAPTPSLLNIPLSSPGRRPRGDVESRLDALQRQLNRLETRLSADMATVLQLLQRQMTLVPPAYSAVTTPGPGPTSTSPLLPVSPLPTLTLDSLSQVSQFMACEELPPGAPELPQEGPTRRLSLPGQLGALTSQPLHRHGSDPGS
On to `CCOCCCNC(=O)c1cc2sc(Cl)cc2n1CC`, for which the “hERG current change (%, negative = inhibition) at 1uM” value was -6.73%.
The same measure for `Cc1cc(C)c([C@@H]2C[C@H]3CN(C4CCCC4)C(=O)[C@]34CCCN24)c(-n2cccn2)c1`: -71.7%; for `CCN1/C(=C2\C(=O)N(C)C(=S)N2C)C=Cc2cc(OC)ccc21`: 6.61%; for `COC(=O)c1ccccc1NCc1cc(=O)oc2cc(O)c(O)cc12`: 9.19%.
With `CCN(CC)c1ccc(C2Nc3cccc4cccc(c34)N2)cc1` the figure was 15.6%; with `Cc1ccc(-c2cc(=O)c3cc(F)ccc3[nH]2)cc1`, 6.15%; with `O=C(/C=C/Nc1cccc([N+](=O)[O-])c1)c1ccco1`, 14.5%.
With `COc1ccc(C(=O)NC(=S)Nc2ccc(NC(=O)c3ccco3)cc2)cc1[N+](=O)[O-]` the figure was 11.3%; with `O=C1NCCN(Cc2ccoc2)C1CC(=O)N(Cc1ccccc1)CC1CCC1` (stereo not shown), 17.9%.
As for `CN1CCN(C(=O)CCN2C(=O)/C(=C/c3ccc(F)cc3)SC2=S)CC1`, the “hERG current change (%, negative = inhibition) at 1uM” value came out at 8.5%.
The same measure for `O=C(c1nc2ccccn2c1CNCCOc1cccnc1)N1CCOCC1`: 10.6%; for `COc1ccc(OCC(=O)Nc2cccc(S(=O)(=O)N(C)c3ccccc3)c2)c([N+](=O)[O-])c1`: -1.67%; for `COC(=O)[C@@]12CCCN1[C@H](c1ccc(-c3ccc(Cl)c(Cl)c3)cc1)[C@H]1C(=O)N(C)C(=O)[C@H]12.O=C(O)C(F)(F)F`: 4.46%.
The same measure for `Nc1nnc(-c2cccc(F)c2)s1`: 12.4%; for `CN(C)CCCN1C(=O)c2cccc3c(Br)ccc(c23)C1=O`: -9.66%; for `O=C(CSc1nc2ncc(Cl)cc2[nH]1)N(Cc1ccccc1)C1CCS(=O)(=O)C1` (stereo not shown): 7.76%.
The same measure for `O=C(c1ccccc1Oc1ccccc1)N1CCN(c2ccc(F)cc2)CC1`: 2%; for `O=C(NCCCNC(=O)c1ccccn1)c1ccc(F)cc1`: 10.8%; for `O=C(CSc1cn(CCNC(=O)c2ccccc2F)c2ccccc12)NCC1CCCO1` (stereo not shown): 6.14%.
`CCC(C)(C)NC(=O)Cc1ccccc1OC`: the “hERG current change (%, negative = inhibition) at 1uM” value is 19.1%.
Regarding `COc1ccc2c(c1)CCc1cnc(N)nc1-2`, the “hERG current change (%, negative = inhibition) at 1uM” value is -0.803%.
With `c1ccc(-c2nc3c4ccccc4ccn3c2CN2CCCCC2)cc1` the figure was -1.95%; with `Cc1cc(C)cc(N(CCC#N)C(=O)COC(=O)c2nc3nc(C)cc(C)n3n2)c1`, -0.842%; with `C=CCC(=O)NC1CCCc2c1cnn2-c1cc(F)cc(F)c1` (stereo not shown), -43.3%.
The same measure for `CN(CCc1ccccn1)C(=O)CCC1CCCN(C(=O)c2ccc3c(c2)OCCO3)C1` (stereo not shown): 3.84%; for `Cc1c(C(=O)OC2CCCC2C)[nH]c2c1C(=O)CCC2` (stereo not shown): 8.73%; for `Cc1ccc(/C=C/C(=O)Nc2nn[nH]n2)o1`: 16.5%.
With `Oc1ccccc1N=Nc1nc(-c2ccccc2)c(-c2ccccc2)[nH]1`, the “hERG current change (%, negative = inhibition) at 1uM” value is reported as 6.98%.
Regarding `COc1ccc(C(=O)Nc2c3c(nn2C(C)(C)C)CS(=O)(=O)C3)cc1OC`, the “hERG current change (%, negative = inhibition) at 1uM” value was found to be 9.82%.
For the compound `O=C(NC1CCCC1)c1cccnc1N1CCCCCC1`, the “hERG current change (%, negative = inhibition) at 1uM” value was 5.12%.
The same measure for `N#CC/C(N)=N/Nc1nc2ccccc2nc1Cc1ccccc1`: 5.25%.
With `Cc1cc(C)c(C)c(S(=O)(=O)N2CCN(C(=O)c3cc(=O)[nH]c4ccccc34)CC2)c1C` the figure was -8.77%; with `COc1ccc(-c2cc(C(=O)NCc3cccs3)no2)cc1`, 8.71%.
As for `COc1cccc(C(c2c(C)[nH]n(-c3ccccc3)c2=O)c2c(C)[nH]n(-c3ccccc3)c2=O)c1O`, the “hERG current change (%, negative = inhibition) at 1uM” value was determined as 5.86%.
Take `COc1ccc(NS(=O)(=O)c2cn(C)cn2)cc1Cl`: the “hERG current change (%, negative = inhibition) at 1uM” value stood at 7.24%.
With `CC(=O)Nc1ccc(S(=O)(=O)NCC(=O)OCC(=O)N2CCCc3ccccc32)cc1` the figure was 5.56%; with `CCN(CC)C(=O)CSc1nnc(COc2cccc(C)c2)n1C`, -3.56%; with `Cc1ccc(C)c(NC(=O)CN(C)C(=O)C2CCN(C(=O)Nc3ccccc3)CC2)c1`, 8.59%.
With `CCOC(=O)c1nnc(-c2ccccc2)[nH]c1=O` the figure was 10.9%; with `CC1CCC/C(=C\Nc2ccc(C(=O)O)cc2)C1=O` (stereo not shown), 11%.
With `COCCOC(=O)c1c(C)oc2ccc(OS(C)(=O)=O)cc12` the figure was 2.8%.
Turning to `COc1cc(CN2CCN(Cc3ccc([N+](=O)[O-])cc3)CC2)c([N+](=O)[O-])cc1OC.O=C(O)C(=O)O`, the “hERG current change (%, negative = inhibition) at 1uM” value is listed as -25.4%.
The same measure for `CCOC(=O)N1CCN(c2ccc(S(=O)(=O)N3CCC(C)CC3)cc2[N+](=O)[O-])CC1`: 5.4%.
